Source: the RNAGym collection of RNA variant scans (doi:10.1073/pnas.2313332121)
Variants at the background level are over-represented here.

B1: TPR 5TU (parent)
chain: GGAUCUUCUCGAUCUAACAAAAAAGACAAAUCUGCCACAAAGCUUGAGAGCAUCUUCGGAUGCAGAGGCGGCAGCCUUCGGUGGCGCGAUAGCGCCAACGUUCUCAACUAUGACACGCAAAACGCGUGCUCCGUUGAAUGGAGUUUAUCAUG

Variants of: B1
Assay: polymerase ribozyme fitness, log enrichment relative to wild type (log ratio); higher = more active; in vitro selection for triplet polymerase activity
Outline: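 Mutant libraries of each subunit of a heterodimeric triplet polymerase ribozyme were built by PCR and transcribed. Each library went through one round of in vitro selection in triplicate: annealing with biotinylated primer, partner subunit and triplets, frozen incubation at −7 °C, gel excision of extended constructs, streptavidin-bead capture and RT-PCR. Input and output libraries were Illumina-sequenced; only genotypes with ≥10 input reads and ≥1 read per output were kept. Fitness is log2(genotype enrichment/wild-type enrichment), using inverse-variance-weighted replicate averages.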

Variant	polymerase ribozyme fitness (log ratio)
A19G C32G G46A U61A G81A G86C C87A G88U G117U U151A	≤ -4.2
A19G C35U U53G C54A G71A U145C	-2.47
A19G C38U A52G C75U G83U C85U G94A C103G	≤ -4.2
A19G C54G C63A A91C C118G	≤ -4.2
A19G C54G U56A G94A C105G A113C	≤ -4.2
A19G C57G U78G G86C U90G C123A	≤ -4.2
A19G C57U C69G C75A C125A	≤ -4.2
A19G C69G C76U U82G G88A G141U A150C	≤ -4.2
A19G C85U	-1.3
A19G C85U C93G	≤ -4.2
A19G C85U G94U G141U	0.14
A19G C95U A98G U109C G136U U151C	≤ -4.2
A19G C123G	-1.22
A19G G25A A28C G65C C95U C96U U146C U151A	≤ -4.2
A19G G25A G50C G62U G92A A113U C118U A120C A150C	≤ -4.2
A19G G25C G59A C93U	≤ -4.2
A19G G25U C36U U56C C96G U144A	≤ -4.2
A19G G34A G50A U56A C69A C95A	≤ -4.2
A19G G42A A66C C85U A106U U148A	≤ -4.2
A19G G42A G58A A60U U61A A97G C125A	≤ -4.2
A19G G42A G94A U104C A142G	≤ -4.2
A19G G42U A47G G81C G94A U144C	≤ -4.2
A19G G46C A64C C85G G100U A137U	≤ -4.2
A19G G48U A52G C85A A89C A122C	≤ -4.2

Variant	polymerase ribozyme fitness (log ratio)
A19G G48U G74A G88U G94C G143U	≤ -4.2
A19G G50A C69U G84U A98U A122G	≤ -4.2
A19G G50C C75G C85G C103A U135C	≤ -4.2
A19G G50U U55A C96U U145G	-2.18
A19G G58A A66C C93U C105G	≤ -4.2
A19G G58A C85A G94C U102G A142C	≤ -4.2
A19G G59U C76A C96U	-1.25
A19G G59U C85U C95A	-1.78
A19G G68U C79G G84A G86A U135C G140U	≤ -4.2
A19G G80U C95G C96A	≤ -4.2
A19G G83A C85A C96U A97C A119G	≤ -4.2
A19G G83C C87U U101G	≤ -4.2
A19G G83C C95G	≤ -4.2
A19G G84U	-2.39
A19G G86A	-1.36
A19G U31G U44A G80A C123G G141C	≤ -4.2
A19G U44A U53G A60U C87U A98U A121G	≤ -4.2
A19G U44G A60U C87G G140A A147U	≤ -4.2
A19G U44G G48C C76A C85G U102G C131G A142U	≤ -4.2
A19G U45A A66U G70A A91U A121C	≤ -4.2
A19G U45A C57A G88U C95U C105U A150C	≤ -4.2
A19G U45A C69U U77A G141C	≤ -4.2
A19G U45C C87A A98G	≤ -4.2
A19G U53A U61G C69G C93A C125G	≤ -4.2

Variant	polymerase ribozyme fitness (log ratio)
A19G U53G G86U A113U	≤ -4.2
A19G U55A C57U G80U C99U C103G U134C	≤ -4.2
A19G U55A C57U U77G C93G A115G A122U U146C	≤ -4.2
A19G U55A C87A A106G G124C G136C C149A A150C	≤ -4.2
A19G U55A G68A G71A C103U	≤ -4.2
A19G U56A A120G U151A	≤ -4.2
A19G U56A G71C U78G U102G C132G A137G C149U	≤ -4.2
A19G U56A G86A G141U	-1.64
A19G U78G C87G A98U U101G G126A	≤ -4.2
A19G U82G G124A G140C	-3.62
A19U A20C A23U C27G G62C	≤ -4.2
A19U A20C C93U G117U G126A	≤ -4.2
A19U A20C G59A A89U C95U G126C	-0.274
A19U A20U A29U C38A A52G U56A	≤ -4.2
A19U A20U C27G A30C C79U C103A C114U	≤ -4.2
A19U A20U C38U U53A G88C C116U G136C U148A	≤ -4.2
A19U A20U G50C C54U U55G C76A C85A C103U U144A	≤ -4.2
A19U A21C	-0.908
A19U A21C C54U U134A	≤ -4.2
A19U A21C G74U G84A C114U U139G	≤ -4.2
A19U A21U A52U G65C C75A C95U A115G	≤ -4.2
A19U A21U C72G A89C C96G G143A	≤ -4.2
A19U A21U U44A A64C C85G C95U	≤ -4.2
A19U A22C A40C C43G A66C C95A G141U G152A	-3.6

Variant	polymerase ribozyme fitness (log ratio)
A19U A22C U55G A64C A73G A91C U144A	≤ -4.2
A19U A22G C32G C85A G88A C105U U151A	≤ -4.2
A19U A22U A47C G80A G86A C87A C95U U104G A120U	≤ -4.2
A19U A22U G74A C96U A115U C116G G141U	≤ -4.2
A19U A23C A91U	≤ -4.2
A19U A23C C27G A52G C54G G94A	≤ -4.2
A19U A23C C54A C76U U78G C93G A119G	≤ -4.2
A19U A23G G42C G86A A106U	≤ -4.2
A19U A23U A39U G59C A60U G86U U109G	≤ -4.2
A19U A24C G42A A52G C57U C96G C108A G126A U144C	≤ -4.2
A19U A24G A37C G74U C87G C95A G136U G140A G143U	≤ -4.2
A19U A24U A52G C54A A73U C79U C103A U130G G140C G141A	≤ -4.2
A19U A24U G46U A49C U82G C99A	≤ -4.2
A19U A26C C38U A89G A98U A107C	≤ -4.2
A19U A26C G46U C93A C95G C108A U151G	≤ -4.2
A19U A26G A122G	≤ -4.2
A19U A26G C72G G88A	≤ -4.2
A19U A26G C75U C85U A89G C95A	≤ -4.2
A19U A26G U44G C54G C95A	≤ -4.2
A19U A26U C32A U55A	≤ -4.2
A19U A26U C38U C96U C125G	≤ -4.2
A19U A28C	≤ -4.2
A19U A28G A41C A49C U109G U145A C149G	≤ -4.2
A19U A28U U53G A137G	≤ -4.2

Variant	polymerase ribozyme fitness (log ratio)
A19U A29C U44A C72A A97U G126A A150G	≤ -4.2
A19U A29U A60C G65A C69A C96U A110C	≤ -4.2
A19U A29U C32G G65C A97U U101A U104G A113U C132U G136A	≤ -4.2
A19U A30C A49G C54U C118A A147U U151G	≤ -4.2
A19U A30C C95G	≤ -4.2
A19U A30U C93U U101A	≤ -4.2
A19U A30U U56A G62C C76U	≤ -4.2
A19U A37C G42A A52C C96A	≤ -4.2
A19U A37C U45A A66C G86A A147C U151G	≤ -4.2
A19U A37C U135G	-3.82
A19U A39C A52C C57U A60C C87U	≤ -4.2
A19U A39G G74U C85G G128C C129U	≤ -4.2
A19U A40C A52U U55A C75A G141U U146A	≤ -4.2
A19U A40C C79A G83A C85G C116A	≤ -4.2
A19U A40G G124A	-4.11
A19U A52C	-1.34
A19U A52G C54A C93G C125A U145G	≤ -4.2
A19U A52G U53G U56A G58C G71U G80A A91C U127C U148C	≤ -4.2
A19U A52U A97G	-2.59
A19U A60U C93U C114U	-4.17
A19U A66U C85U A106G C116G U144A	≤ -4.2
A19U A73G G86U	-1.03
A19U A73U	-0.608
A19U A89U G136U	-3.55

Variant	polymerase ribozyme fitness (log ratio)
A19U A91C C129A	≤ -4.2
A19U A106G G143C	-2.4
A19U C27A A30G U55A C93A C95U C99G	≤ -4.2
A19U C27A A64C G68C C87A A119U A150C	≤ -4.2
A19U C27A U33G U53A U56A G67A C69U G94U G128U G140A G143U	≤ -4.2
A19U C32A A60G C103A C105G A142G	≤ -4.2
A19U C32G C96G A122C G126C G143U	≤ -4.2
A19U C32U U61A G70A C76A A89U C96G G140A U148G	≤ -4.2
A19U C35G C43A U56A G58U C85U A113G A122C U151A	≤ -4.2
A19U C35G C57U U90C C96A C132U	≤ -4.2
A19U C35U C51U G58A C87G	≤ -4.2
A19U C36A G70A C95U U148A	≤ -4.2
A19U C36U A66U G71A C85G A147U	≤ -4.2
A19U C36U G86C C93U G100A G126C	≤ -4.2
A19U C38U C75U G83C G84U A91C U144C	≤ -4.2
A19U C43G G50A G70A C105U G112A A120G G143A C149A	≤ -4.2
A19U C43U G50C G74A A91U U134C G140C	≤ -4.2
A19U C43U U44A G88U A89G C96G G126A	≤ -4.2
A19U C43U U45A A52C C57U G70A C93A C95G C116G C125G G133U U144G A150C	≤ -4.2
A19U C51A G86U C95U G141C	≤ -4.2
A19U C51G G59C C75G G88A A91U C96U G141C	≤ -4.2
A19U C54A G70A U82A U134G U139A	≤ -4.2
A19U C54G A60C G65C C85A A98G G133U	≤ -4.2
A19U C54G C79A U82C G84A A89C G92C U144C	≤ -4.2

Variant	polymerase ribozyme fitness (log ratio)
A19U C54U A73C G83U G94U C116G U144A	≤ -4.2
A19U C54U C114U U144G A150C	≤ -4.2
A19U C54U G68A G84C C85G G124A	≤ -4.2
A19U C54U U134C A150C	-2.5
A19U C63U C96U C105G C116A	-2.98
A19U C72U G88C G152U	≤ -4.2
A19U C76G C96U	≤ -4.2
A19U C85A	-1.33
A19U C85U	-0.763
A19U C87A A89C	≤ -4.2
A19U C87A G124A G133A	≤ -4.2
A19U C87G C99U G140C	≤ -4.2
A19U C87U G141U U146C	0.666
A19U C95U	-0.543
A19U C96A	-0.531
A19U C99U G133C U144G	-2.25
A19U G25A U61A	≤ -4.2
A19U G25C U45G G58C A89U G94U A121C G128U G140A	≤ -4.2
A19U G25U A49C U55G U56G C85U A98G A106G C118U G133A U145G	≤ -4.2
A19U G42A U45A C57A C87G C131U A142C	≤ -4.2
A19U G42C G81C C87A C118U A119G G152A	≤ -4.2
A19U G42C G86U A110G C116A G117U	≤ -4.2
A19U G46A G58C A97U U134A	≤ -4.2
